PubChem BioAssay (NCATS)
Several values for one entry are separate records, joined by “and”; a condition that tells them apart may be missing. Equal entries are not always repeated. The shares of active, inactive and inconclusive entries below differ from those in the screen. A potency beside an inconclusive call is a rough fit, not a confirmed value. Where a structure was tested more than once in an assay, its records may differ in their call. Activity calls are given as the source filed them. Calls come from the whole dose curve; as a rule, active = well fitted inhibition curve with a large enough effect; inconclusive = small, poorly fitted or top-dose-only effect; inactive = flat fitted curve, though single readings scatter.
Potency is the fitted concentration of half-maximal effect; tags give direction and shape of the fitted curve.

These compounds were tested against Glutathione peroxidase 1 (Homo sapiens) (UniProt P07203) (assay: Primary qHTS Assay for Inhibitors of Recombinant Selenoprotein Glutathione Peroxidase 1 (GPX1) (AID 1845191; note: nearly all actives have a fitted effect of over 65% in size)). Details: recombinant GPX1, GR-coupled NADPH fluorescence, 15 min; series mostly up to 48.8 µM.
UniProt P07203, sequence (P07203 whole entry, looked up): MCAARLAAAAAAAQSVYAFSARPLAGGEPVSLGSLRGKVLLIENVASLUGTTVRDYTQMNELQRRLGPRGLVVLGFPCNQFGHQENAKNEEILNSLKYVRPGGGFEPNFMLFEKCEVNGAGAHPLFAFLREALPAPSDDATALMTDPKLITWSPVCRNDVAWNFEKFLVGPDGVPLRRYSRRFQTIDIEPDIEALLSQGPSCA
From the text: Assay Provider: Elias S.J. Arner MD PhD.
Department of Medical Biochemistry and Biophysics
Karolinska Institutet, Solna, Stockholm, Sweden
Selenoprotein glutathione peroxidases (GPX), like the ubiquitously expressed GPX1 and the ferroptosis modulator GPX4, enact their antioxidant activities by reducing hydroperoxides using glutathione. […] GPX1 and GPX4 inhibitors have thus shown promise as anti-cancer agents. Existing inhibitors are often promiscuous, or modulate GPX activity only indirectly, so novel direct inhibitors identified through screening against GPX1 and GPX4 could be valuable. Here, we developed optimized glutathione reductase (GR)-coupled GPX assays for the biochemical high-throughput screen (HTS) of almost 12,000 compounds with known mechanisms of action. Initial hits were triaged using a GR counter-screen, assessed for isoform specificity using a separate GPX2 assay, and were assessed for general selenocysteine-targeting activity using a thioredoxin reductase (TXNRD1) assay. With this suite of assays, we identified novel GPX1/GPX2- and GPX4-specific inhibitors and can here present a validated pipeline for future discovery research for selenoprotein-targeting agents.
SEQUENCE No. (e.g., 1, 2, 3, etc.); […] (e.g., Cells, Incubation, Reagent, etc.); VALUE; DESCRIPTION.
1; Reagent 1; 3 uL; GPx1 enzyme or no enzyme control in 1536-well, black, solid Greiner assay plate.
2; Compound; 25 nL; Kalypsis pin tool (Wako USA) equipped with a 1536-well pin head.
3; Incubation; 30 min; room temperature.
4; Reagent 2; 1 uL; 10 nM GPX1, 1 mM GSH, 0.5 mM CHP, 0.5 mM NADPH, 100 nM GR, 0.01% BSA substrate
5; Detection; Fluorescence; ViewLux microplate reader, excitation 340 nm and emission 450 nm.
6; Incubation; 15 min; room temperature.
7; Detection; Fluorescence; ViewLux microplate reader, excitation 340 nm and emission 450 nm.
NOTES (numbers refer to Sequence numbers above)
1. 3 uL of 16.66 nM GPX1 and 0.016% BSA in assay buffer (50 mM Tris-HCl, 2 mM EDTA (pH 7.5), 150 mM NaCl) was added to columns 3-48 of 1536-well assay plates using a BioRAPTR Flying Reagent Dispenser (Let's Go Robotics (LGR), Carlsbad, CA). A no-enzyme control (0.01% BSA in TES assay buffer) was added to columns 1-2.
2. 25 nL of test compounds and DMSO controls were added to each well with a pin tool (Kalypsys).
3. The assay plates were incubated for 30 minutes at room temperature.
4. 1 uL of master mix (500 nM glutathione reductase (GR), 5 mM reduced glutathione (GSH), 2.5 mM NADPH in assay buffer) was added. 1 uL of cumene hydroperoxide (CHP) ([2.5 mM] in 50% EtOH) was then added within 5 minutes to initiate the reaction. Final concentrations were: 10 nM GPX1, 1 mM GSH, 0.5 mM CHP, 0.5 mM NADPH, 100 nM GR, 0.01% BSA.
5. Initial fluorescence readout (t=0) at 340/450 nm was measured using a ViewLux multimodal detector (PerkinElmer, Waltham, MA).
7. Endpoint fluorescence readout (t=15) at 340/450 nm was measured 15 min after room temperature incubation.
`N#Cc1c(O)c2c(-c3ccc(-c4ccccc4O)cc3)csc2[nH]c1=O` was tested, and the Potency was active: 12.8 µM. In the case of `NC(CS)C(=O)O` (stereo not given), the Potency is reported as inconclusive: 18 µM [inhibitor, single point]. With `C[C@]12CCC(=O)C=C1CC[C@@H]1[C@@H]2[C@@H](O)C[C@@]2(C)[C@H]1CC[C@]2(O)C(=O)COP(=O)(O)O` the Potency was inconclusive: 8.81 µM [inhibitor, single point]. With `NCc1ccccc1CC(=O)N[C@@H]1C(=O)N2C(C(=O)O)=C(CSc3nnnn3CC(=O)O)CS[C@H]12` the Potency was active: 5.08 µM. For `Nc1ncnc2nc[nH]c12`, the Potency was inconclusive: 5.7 µM [inhibitor, full curve]. For `CNCCC(Oc1ccc(C(F)(F)F)cc1)c1ccccc1` (stereo not given), the Potency was “inactive”. With `O=C(O)c1cc(=O)c2c3nc4ccccc4oc-3cc(=O)c2[nH]1` the Potency was inconclusive: 16.1 µM [inhibitor, partial curve]. In the case of `CN1CCc2c(n(Cc3ccc(C(=O)NO)cc3)c3ccccc23)C1`, the Potency is reported as inconclusive: 32.1 µM [inhibitor, partial curve, poor fit]. With `Cc1cc(SCc2sc(-c3ccc(C(F)(F)F)cc3)nc2C)ccc1OCC(=O)O` the Potency was active: 20.2 µM. In the case of `CC[C@@]1(O)C(=O)OCc2c1cc1n(c2=O)Cc2cc3c(CN(C)C)c(O)ccc3nc2-1`, the Potency is reported as inconclusive: 18 µM [inhibitor, single point]. `CC[C@H]1OC(=O)C[C@@H](O)[C@H](C)[C@@H](O[C@@H]2O[C@H](C)[C@@H](O)[C@H](N(C)C)[C@H]2O)[C@@H](CCN2C[C@H](C)C[C@H](C)C2)C[C@@H](C)C(=O)/C=C/C(C)=C/[C@@H]1CO[C@@H]1O[C@H](C)[C@@H](O)[C@@H](OC)[C@H]1OC` was tested, and the Potency was inconclusive: 32.1 µM [inhibitor, single point]. For `CC/C(=C(\c1ccccc1)c1ccc(OCCN(C)C)cc1)c1ccccc1`, the Potency was inconclusive: 6.4 µM [inhibitor, full curve, poor fit]. With `CN(C)CCN(C)C(=O)c1ccc(NC(=O)Nc2ccc(-c3nc(N4CCOCC4)c4ccn(CC(F)(F)F)c4n3)cc2)cc1` the Potency was inconclusive: 29 µM [inhibitor, single point]. For `CN(C)c1ccc(C(=C2C=CC(=[N+](C)C)C=C2)c2ccc(N(C)C)cc2)cc1`, the Potency was inconclusive: 6.4 µM [inhibitor, partial curve]. With `Cc1ncc(CSSCc2cnc(C)c(O)c2CO)c(CO)c1O` the Potency was inconclusive: 36 µM [inhibitor, partial curve, poor fit]. For `Cc1c(C)c2c(c(C)c1O)CCC(C)(COc1ccc(CC3SC(=O)NC3=O)cc1)O2` (stereo not given), the Potency was inconclusive: 25.5 µM [inhibitor, partial curve]. In the case of `Clc1ccc2c(c1)C(N1CCNCC1)=Nc1ccccc1O2`, the Potency is reported as inconclusive: 11.4 µM [inhibitor, partial curve]. With `Cn1cnc([N+](=O)[O-])c1Sc1ncnc2nc[nH]c12` the Potency was inconclusive: 6.4 µM [inhibitor, full curve]. `O=S(=O)(O)c1ccc2cc(N=Nc3cc(S(=O)(=O)O)c4cccnc4c3O)ccc2c1` was tested, and the Potency was inconclusive: 20.2 µM [inhibitor, partial curve, poor fit]. In the case of `O=C(OC[C@H]1O[C@@H](OC(=O)c2cc(O)c(O)c(OC(=O)c3cc(O)c(O)c(O)c3)c2)[C@H](OC(=O)c2cc(O)c(O)c(OC(=O)c3cc(O)c(O)c(O)c3)c2)[C@@H](OC(=O)c2cc(O)c(O)c(OC(=O)c3cc(O)c(O)c(O)c3)c2)[C@@H]1OC(=O)c1cc(O)c(O)c(OC(=O)c2cc(O)c(O)c(O)c2)c1)c1cc(O)c(O)c(OC(=O)c2cc(O)c(O)c(O)c2)c1`, the Potency is reported as inconclusive: 22.7 µM [inhibitor, single point]. In the case of `O=S(=O)(O)CC(S)CS` (stereo not given), the Potency is reported as active: 10.1 µM. For `O=C1c2c(O)cccc2[C@H]([C@@H]2O[C@H](CO)[C@@H](O)[C@H](O)[C@H]2O)c2cc(CO)cc(O)c21`, the Potency was inconclusive: 25.5 µM [inhibitor, partial curve, poor fit]. In the case of `CN(Cc1cnc2nc(N)nc(N)c2n1)c1ccc(C(=O)N[C@@H](CCC(=O)O)C(=O)O)cc1`, the Potency is reported as inconclusive: 20.2 µM [inhibitor, single point]. For `CN1CCc2c(c3ccccc3n2Cc2ccccc2)C1`, the Potency was inconclusive: 22.7 µM [inhibitor, partial curve, poor fit]. `O=S(=O)(O)c1ccc2c(N=Nc3ccc(S(=O)(=O)O)c4ccccc34)c(O)c(S(=O)(=O)O)cc2c1` was tested, and the Potency was inconclusive: 32.1 µM [inhibitor, single point]. In the case of `C#CCC(Cc1cnc2nc(N)nc(N)c2n1)c1ccc(C(=O)N[C@@H](CCC(=O)O)C(=O)O)cc1` (stereo not given in full), the Potency is reported as inconclusive: 16.1 µM [inhibitor, partial curve]. In the case of `COc1ccc(-c2cc3c(C)nc(N)nc3n(C3CCC(OCCO)CC3)c2=O)cn1` (stereo not given), the Potency is reported as active: 5.78 µM and active: 16.1 µM. For `OCCn1cc(-c2cnc3nnn(Cc4ccc5ncccc5c4)c3n2)cn1`, the Potency was inconclusive: 22.7 µM [inhibitor, partial curve]. With `Nc1c(Br)cc(Br)cc1CNC1CCC(O)CC1` (stereo not given) the Potency was inconclusive: 9.04 µM [inhibitor, partial curve, poor fit]. For `CC1=CCC(C(C)(C)O)CC1` (stereo not given), the “outcome” value was “inactive [at 98.3 µM]”. With `CN(C)C(=S)SC(=S)N(C)C` the Potency was inconclusive: 14.3 µM [inhibitor, partial curve]. With `O=C(c1ccc(C(=O)N2CCC(N3CCCC3)CC2)c(Nc2ccccc2)c1)N1CCC(N2CCCC2)CC1` the Potency was “inactive”. With `O=C1CSC2(CCN(CCCN3c4ccccc4Sc4ccc(Cl)cc43)CC2)N1` the Potency was inconclusive: 22.7 µM [inhibitor, single point]. For `COc1cc2c(cc1O)CCN[C@]21CS[C@@H]2c3c(OC(C)=O)c(C)c4c(c3[C@H](COC1=O)N1[C@@H]2[C@H]2c3c(cc(C)c(OC)c3O)C[C@@H]([C@@H]1O)N2C)OCO4`, the Potency was inconclusive: 4.65 µM [inhibitor, partial curve]. With `CC(=O)Oc1cc(C(C)C)c(OCCN(C)C)cc1C` the Potency was inconclusive: 6.4 µM [inhibitor, full curve]. In the case of `CC(C(=O)O)c1ccc2c(c1)CC(=O)c1ccccc1S2` (stereo not given), the Potency is reported as active: 16.1 µM and inconclusive: 22.7 µM [inhibitor, single point]. `CCN1CCN(Cc2ccc(-c3cc4c(N[C@H](C)c5ccccc5)ncnc4[nH]3)cc2)CC1` was tested, and the Potency was inconclusive: 28.6 µM [inhibitor, single point]. With `CCN(CC)CCCC(C)Nc1ccnc2cc(Cl)ccc12` (stereo not given) the Potency was inconclusive: 8.81 µM [inhibitor, partial curve]. `C[C@H]1O[C@@H](O[C@H]2[C@@H](O)C[C@H](O[C@H]3[C@@H](O)C[C@H](O[C@H]4CC[C@@]5(C)[C@H](CC[C@@H]6[C@@H]5C[C@@H](O)[C@]5(C)[C@@H](C7=CC(=O)OC7)CC[C@]65O)C4)O[C@@H]3C)O[C@@H]2C)C[C@H](O)[C@@H]1O` was tested, and the Potency was “inactive”. With `COc1ccc(S(=O)(=O)Nc2cccnc2Nc2ccc(O)cc2)cc1` the Potency was inconclusive: 28.6 µM [inhibitor, partial curve, poor fit].
